For 31 molecules, binding signal results are on record in paper PMC9911399, “Two distinct binding modes provide the RNA-binding protein RbFox with extraordinary sequence specificity”.

To fix the notation:
B1: AACCCAA (DNA:RNA)
RNA: GGGAGACCGGAAUUCAGAUUGUCCAACCCAAUUAAAUCCCGUCGUAGCCACCA
DNA 1: CAATCTGAATTCCGGTCTCCC
DNA 2: TGGTGGCTACGACGGGATT
B2: GGCGCUA (DNA:RNA)
RNA: B1 RNA with A25G, A26G, C28G, A30U
DNA 1: CAATCTGAATTCCGGTCTCCC
DNA 2: TGGTGGCTACGACGGGATT
B3: CUAUCGG (DNA:RNA)
RNA: B1 RNA with A25C, A26U, C27A, C28U, A30G, A31G
DNA 1: CAATCTGAATTCCGGTCTCCC
DNA 2: TGGTGGCTACGACGGGATT
B4: UCAGACC (DNA:RNA)
RNA: GGGAGACCGGAAUUCAGAUUGUCCUCAGACCUUAAAUCCCGUCGUAGCCACCA
DNA 1: CAATCTGAATTCCGGTCTCCC
DNA 2: TGGTGGCTACGACGGGATT
B5: AUGUACG (DNA:RNA)
RNA: B4 RNA with U25A, C26U, A27G, G28U, C31G
DNA 1: CAATCTGAATTCCGGTCTCCC
DNA 2: TGGTGGCTACGACGGGATT
B6: AAGCUAC (DNA:RNA)
RNA: B1 RNA with C27G, C29U, A31C
DNA 1: CAATCTGAATTCCGGTCTCCC
DNA 2: TGGTGGCTACGACGGGATT
B7: AUCGGAG (DNA:RNA)
RNA: B1 RNA with A26U, C28G, C29G, A31G
DNA 1: CAATCTGAATTCCGGTCTCCC
DNA 2: TGGTGGCTACGACGGGATT
B8: CACAAAU (DNA:RNA)
RNA: B1 RNA with A25C, C28A, C29A, A31U
DNA 1: CAATCTGAATTCCGGTCTCCC
DNA 2: TGGTGGCTACGACGGGATT
B9: GGAGCGU (DNA:RNA)
RNA: B4 RNA with U25G, C26G, A29C, C30G, C31U
DNA 1: CAATCTGAATTCCGGTCTCCC
DNA 2: TGGTGGCTACGACGGGATT
B10: AACAGGC (DNA:RNA)
RNA: B1 RNA with C28A, C29G, A30G, A31C
DNA 1: CAATCTGAATTCCGGTCTCCC
DNA 2: TGGTGGCTACGACGGGATT
B11: AAGUAUC (DNA:RNA)
RNA: B1 RNA with C27G, C28U, C29A, A30U, A31C
DNA 1: CAATCTGAATTCCGGTCTCCC
DNA 2: TGGTGGCTACGACGGGATT
B12: GGCGAUA (DNA:RNA)
RNA: B1 RNA with A25G, A26G, C28G, C29A, A30U
DNA 1: CAATCTGAATTCCGGTCTCCC
DNA 2: TGGTGGCTACGACGGGATT
B13: AGUCAGU (DNA:RNA)
RNA: B1 RNA with A26G, C27U, C29A, A30G, A31U
DNA 1: CAATCTGAATTCCGGTCTCCC
DNA 2: TGGTGGCTACGACGGGATT
B14: UCAUUGG (DNA:RNA)
RNA: B4 RNA with G28U, A29U, C30G, C31G
DNA 1: CAATCTGAATTCCGGTCTCCC
DNA 2: TGGTGGCTACGACGGGATT
B15: CGCGGCA (DNA:RNA)
RNA: B1 RNA with A25C, A26G, C28G, C29G, A30C
DNA 1: CAATCTGAATTCCGGTCTCCC
DNA 2: TGGTGGCTACGACGGGATT
B16: CAGAACU (DNA:RNA)
RNA: B4 RNA with U25C, C26A, A27G, G28A, C31U
DNA 1: CAATCTGAATTCCGGTCTCCC
DNA 2: TGGTGGCTACGACGGGATT
B17: AGAGGUG (DNA:RNA)
RNA: B4 RNA with U25A, C26G, A29G, C30U, C31G
DNA 1: CAATCTGAATTCCGGTCTCCC
DNA 2: TGGTGGCTACGACGGGATT
B18: CUUGGGU (DNA:RNA)
RNA: B4 RNA with U25C, C26U, A27U, A29G, C30G, C31U
DNA 1: CAATCTGAATTCCGGTCTCCC
DNA 2: TGGTGGCTACGACGGGATT
B19: AGACAUU (DNA:RNA)
RNA: B1 RNA with A26G, C27A, C29A, A30U, A31U
DNA 1: CAATCTGAATTCCGGTCTCCC
DNA 2: TGGTGGCTACGACGGGATT
B20: GGUCGUA (DNA:RNA)
RNA: B1 RNA with A25G, A26G, C27U, C29G, A30U
DNA 1: CAATCTGAATTCCGGTCTCCC
DNA 2: TGGTGGCTACGACGGGATT
B21: UGGAUUU (DNA:RNA)
RNA: B4 RNA with C26G, A27G, G28A, A29U, C30U, C31U
DNA 1: CAATCTGAATTCCGGTCTCCC
DNA 2: TGGTGGCTACGACGGGATT
B22: UAUAAUC (DNA:RNA)
RNA: B4 RNA with C26A, A27U, G28A, C30U
DNA 1: CAATCTGAATTCCGGTCTCCC
DNA 2: TGGTGGCTACGACGGGATT
B23: AGUUCAC (DNA:RNA)
RNA: B1 RNA with A26G, C27U, C28U, A31C
DNA 1: CAATCTGAATTCCGGTCTCCC
DNA 2: TGGTGGCTACGACGGGATT
B24: GCACAGG (DNA:RNA)
RNA: B4 RNA with U25G, G28C, C30G, C31G
DNA 1: CAATCTGAATTCCGGTCTCCC
DNA 2: TGGTGGCTACGACGGGATT
B25: GAGGCUU (DNA:RNA)
RNA: B1 RNA with A25G, C27G, C28G, A30U, A31U
DNA 1: CAATCTGAATTCCGGTCTCCC
DNA 2: TGGTGGCTACGACGGGATT
B26: AAAAUGC (DNA:RNA)
RNA: B1 RNA with C27A, C28A, C29U, A30G, A31C
DNA 1: CAATCTGAATTCCGGTCTCCC
DNA 2: TGGTGGCTACGACGGGATT
B27: GAGCCUC (DNA:RNA)
RNA: B1 RNA with A25G, C27G, A30U, A31C
DNA 1: CAATCTGAATTCCGGTCTCCC
DNA 2: TGGTGGCTACGACGGGATT
B28: UGCACGC (DNA:RNA)
RNA: B1 RNA with A25U, A26G, C28A, A30G, A31C
DNA 1: CAATCTGAATTCCGGTCTCCC
DNA 2: TGGTGGCTACGACGGGATT
B29: AUCUUUG (DNA:RNA)
RNA: B1 RNA with A26U, C28U, C29U, A30U, A31G
DNA 1: CAATCTGAATTCCGGTCTCCC
DNA 2: TGGTGGCTACGACGGGATT
B30: ACCCGUG (DNA:RNA)
RNA: B1 RNA with A26C, C29G, A30U, A31G
DNA 1: CAATCTGAATTCCGGTCTCCC
DNA 2: TGGTGGCTACGACGGGATT
B31: CACACAG (DNA:RNA)
RNA: B1 RNA with A25C, C28A, A31G
DNA 1: CAATCTGAATTCCGGTCTCCC
DNA 2: TGGTGGCTACGACGGGATT

Positions count from the first letter of the chain named. This is one part of the list.

For this test, the target named is T1, RBFOX1 RRM (Homo sapiens, UniProt Q9NWB1 109-208).
T1 sequence: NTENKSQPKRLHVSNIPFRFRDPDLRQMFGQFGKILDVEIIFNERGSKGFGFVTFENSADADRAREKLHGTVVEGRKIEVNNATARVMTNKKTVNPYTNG
Nature of the test: EMSA; HiTS-Eq, 1 nM pool, 10 min; buffer printed only for the single-RNA assays: 10 mM Tris pH 7.5, 150 mM NaCl, 3.4 mM EDTA, 0.001% NP-40, 30 C. Conditions: tags: His6 N-terminal (pET28a); label: 5' 32P. The gist of the method:
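Purified wild-type or mutant RbFox RRM at increasing concentrations was equilibrated with 1 nM of 5′-radiolabelled RNA carrying 7 randomized nucleotides for 10 min in 50 µL. Unbound RNA was separated by 8% native PAGE and sequenced. Relative association constants came from read-count changes of each RNA species compared with the control reaction, normalised to the cognate motif.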
In general terms: Mobility shift assays separate free from complexed probe on a gel.
On to B1, for which the binding signal is 0.000805 KA relative to UGCAUGU.
In the case of B2 it was 0.00672 KA relative to UGCAUGU; in that of B3, 0.00622 KA relative to UGCAUGU; in that of B4, 0.00454 KA relative to UGCAUGU.
In the case of B5 it was 0.00949 KA relative to UGCAUGU; in that of B6, 0.00816 KA relative to UGCAUGU; in that of B7, 0.00272 KA relative to UGCAUGU.
On to B8, for which the binding signal is 0.000307 KA relative to UGCAUGU.
The result for B9 reads 0.0147 KA relative to UGCAUGU; that for B10, 0.00461 KA relative to UGCAUGU.
In the case of B11 it was 0.00804 KA relative to UGCAUGU; in that of B12, 0.00786 KA relative to UGCAUGU; in that of B13, 0.0114 KA relative to UGCAUGU.
Take B14: the binding signal is 0.014 KA relative to UGCAUGU.
With B15, the binding signal is 0.0201 KA relative to UGCAUGU.
As for B16, the binding signal was 0.00206 KA relative to UGCAUGU.
In the case of B17 it was 0.014 KA relative to UGCAUGU; in that of B18, 0.00576 KA relative to UGCAUGU; in that of B19, 0.0042 KA relative to UGCAUGU.
The result for B20 reads 0.00477 KA relative to UGCAUGU; that for B21, 0.0242 KA relative to UGCAUGU.
The result for B22 reads 0.00662 KA relative to UGCAUGU; that for B23, 0.00392 KA relative to UGCAUGU; that for B24, 0.0133 KA relative to UGCAUGU.
In the case of B25, the binding signal was 0.0186 KA relative to UGCAUGU.
In the case of B26, the binding signal was 0.00522 KA relative to UGCAUGU.
B27: the binding signal is 0.00995 KA relative to UGCAUGU.
The result for B28 reads 0.252 KA relative to UGCAUGU; that for B29, 0.015 KA relative to UGCAUGU.
The result for B30 reads 0.00418 KA relative to UGCAUGU.
The result for B31 reads 0.00174 KA relative to UGCAUGU.
